Reference: the supplement of paper PMC3334620
Over roughly 33,000 sequences, “E-score (-0.5 to 0.5)” has its median near -0.036; the highest 2% begin near 0.37. Some of the results follow.

Each sequence was assayed against T1, Yer064c (UniProt P40041) (assay: PBM E-score (8-mer binding enrichment) (E-score (-0.5 to 0.5)); higher = stronger / more preferred TF binding; most listed sequences are background and not binding sites). Conditions: protein concentration: 200 nM; construct: GST-full length.
T1 sequence: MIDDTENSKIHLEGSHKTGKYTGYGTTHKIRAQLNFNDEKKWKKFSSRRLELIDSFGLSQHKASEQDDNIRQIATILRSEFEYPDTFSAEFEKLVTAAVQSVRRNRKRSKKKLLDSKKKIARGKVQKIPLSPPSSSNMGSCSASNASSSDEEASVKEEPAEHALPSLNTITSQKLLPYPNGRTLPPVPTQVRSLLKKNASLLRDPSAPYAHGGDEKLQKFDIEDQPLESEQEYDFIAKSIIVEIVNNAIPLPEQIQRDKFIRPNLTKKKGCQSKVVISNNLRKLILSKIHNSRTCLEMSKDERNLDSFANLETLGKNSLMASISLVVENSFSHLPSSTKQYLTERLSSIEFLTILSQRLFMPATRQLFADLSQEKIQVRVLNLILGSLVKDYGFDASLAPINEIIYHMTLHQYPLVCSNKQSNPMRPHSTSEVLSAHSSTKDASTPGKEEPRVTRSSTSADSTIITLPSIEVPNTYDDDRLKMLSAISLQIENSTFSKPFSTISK
Procedure, shortened: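 Yeast transcription factors carrying a GST tag, as full-length proteins or DNA-binding domains, were produced by PURExpress in vitro transcription/translation. About 100-200 nM protein was applied to universal all-10-mer Agilent arrays, double-stranded by primer extension on fresh or once-stripped slides. Bound protein was detected with fluorescent anti-GST, and scans were normalised with masliner. The Universal PBM Analysis Suite gave each ungapped eight-base word, pooled with its reverse complement, an E-score, a modified Wilcoxon-Mann-Whitney statistic.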

| Sequence | PBM E-score |
| --- | --- |
| CGTCGCTA | -0.0862 |
| CGCCTTGA | -0.0165 |
| CTCCCCGA | -0.0625 |
| ACATAAGT | 0.168 |
| GATTAAGC | 0.253 |
| AAACTTCA | 0.00996 |
| CAAATCTG | -0.0853 |
| AATTTAGC | 0.0562 |
| ACGGCGAT | -0.0184 |
| AAAGTTCT | -0.182 |
| CACTACAA | 0.0688 |
| ACGCGACG | -0.164 |
| CGACCTAA | -0.0186 |
| CGAGTCTC | 0.307 |
| GTTTATAA | -0.0408 |
| CAAGATTG | 0.0192 |
| CCTGCAGG | -0.0175 |
| CATAGTCA | 0.466 |
| ACCCGTGC | 0.114 |
| CACCCCTC | -0.198 |
| ATAACTAC | -0.0291 |
| AGAAGAGG | -0.224 |
| ATCGGTTA | 0.212 |
| GCCACCGC | -0.3 |
| GAAGAAAA | -0.0492 |

| Sequence | PBM E-score |
| --- | --- |
| CTTTATTC | 0.00929 |
| CCCTGGCC | -0.277 |
| CATAGGAC | 0.172 |
| CAGAACGA | 0.12 |
| AGATCGCC | -0.0953 |
| ATCCTAGC | -0.00328 |
| AGAAACCA | 0.147 |
| GGGGAAAA | -0.331 |
| CGGCTGCA | -0.189 |
| GTTCTACA | -0.16 |
| ACCTAAAC | 0.103 |
| CCCATACA | -0.15 |
| ATGCCTGG | -0.145 |
| ACTTGCAT | 0.0403 |
| GCTACGTA | -0.104 |
| ACAGCGGG | -0.0979 |
| ATTGCAGC | -0.164 |
| CTTAACTA | 0.109 |
| ATCTTAAG | 0.0869 |
| CTAGTGAG | 0.0477 |
| CGTCTGAC | 0.156 |
| CAGGTGGA | -0.2 |
| TGTAACAA | 0.0232 |
| ATTCTCAG | 0.1 |
| AACGCCCC | -0.226 |

| Sequence | PBM E-score |
| --- | --- |
| ATCAGAAA | -0.0472 |
| ACTTTCAT | 0.0766 |
| AATAGGGC | -0.167 |
| CTGCGATC | -0.106 |
| AGCTGAGC | -0.118 |
| AAAGGCAT | -0.14 |
| AATCCTTG | 0.102 |
| GGAGGCGA | -0.111 |
| CCTCATTA | 0.0877 |
| ATTTGCTG | 0.0322 |
| TCGCCAAA | 0.0491 |
| AGTTCTCG | 0.0443 |
| AATATCAC | -0.112 |
| CAGCGACC | -0.198 |
| AAGTCAAC | 0.367 |
| ATACTTCA | 0.0199 |
| ACGGCTCT | -0.0544 |
| ATCCCCGA | -0.0358 |
| CAATAAGA | 0.213 |
| ATCTTAAA | 0.226 |
| CCTTGCTA | -0.0262 |
| GAGCCCCC | -0.305 |
| CAAGCGGA | -0.17 |
| ATACAATG | 0.113 |
| GGGGCACC | -0.429 |

| Sequence | PBM E-score |
| --- | --- |
| AACATGGC | -0.184 |
| AATGGGAA | -0.0485 |
| AAGAAGAT | 0.155 |
| CGGTGAAA | -0.127 |
| AAAGTAAA | 0.0649 |
| ATTGCATC | -0.0771 |
| AGAAAGTG | 0.0244 |
| ATGAGTAA | 0.386 |
| CTTTTCCC | -0.0425 |
| ATCACAAC | 0.13 |
| GTACATAC | -0.0201 |
| TCTGCAAA | 0.0112 |
| AGCGCCGA | -0.00218 |
| AGAGCCTA | -0.106 |
| AACACGTT | -0.0811 |
| GCAATAGA | -0.186 |
| ATGCTATA | -0.188 |
| AAGAAATA | 0.0217 |
| CTCCTTTA | -0.155 |
| GCTCCACA | -0.195 |
| GAAAAAGC | -0.1 |
| CAACTGAC | 0.0907 |
| ACGAAAAG | 0.0452 |
| ATACTAAT | 0.174 |
| GAAGGGTA | -0.148 |

| Sequence | PBM E-score |
| --- | --- |
| GCCATGCC | -0.125 |
| GCATTGGA | -0.0532 |
| CATAATAC | -0.0404 |
| TCAAAGAA | 0.0747 |
| CAGATATG | -0.0349 |
| ATTCTAGC | 0.0282 |
| GTGGGTTA | 0.103 |
| AGGCTCAC | -0.00343 |
| CACTTAAA | 0.104 |
| AGCATTTC | -0.121 |
| GACCCCCC | -0.351 |
| ATACTTCG | 0.06 |
| CTTCGGAA | 0.1 |
| TAAAAGCA | -0.0857 |
| TCTTGGAA | 0.0958 |
| AGGCCACC | -0.301 |
| AGAATAAT | -0.053 |
| GATCTTGA | 0.125 |
| AAGCGCCG | -0.118 |
| CCAACAAC | 0.102 |
| GGACGAAA | -0.114 |
| AAAGTTGA | 0.0131 |
| CCTCTACA | -0.203 |
| ATGTTTGG | 0.0509 |
| ACGGCTGA | 0.205 |

| Sequence | PBM E-score |
| --- | --- |
| AATCCTCC | 0.0546 |
| CCTTCTTC | -0.299 |
| AGCGACAC | -0.0184 |
| AACTGTCG | -0.0262 |
| CTATCTCC | -0.238 |
| AGCCGACA | -0.0612 |
| TGAACGCA | 0.144 |
| CGGTGATC | 0.0315 |
| AATCTTCG | 0.25 |
| ATAAGCAT | -0.251 |
| CAAGATAC | -0.0857 |
| CAGGTGGG | -0.204 |
| ATGGAAGA | 0.0433 |
| ATGTATAA | 0.0409 |
| AAGCGATG | -0.146 |
| TGGGCCAA | -0.19 |
| GAAAACAA | -0.0843 |
| GGAGATTA | 0.188 |
| CATTACGC | -0.0263 |
| ATGTGGGC | 0.0453 |
| CGATAGGA | -0.00722 |
| ACGGACGG | -0.147 |
| CACAGCTA | 0.048 |
| GCTCCAGA | -0.0739 |
| AATCCCAC | 0.0254 |

| Sequence | PBM E-score |
| --- | --- |
| CGTCGCCC | -0.186 |
| CCCCAGCC | -0.243 |
| TTAGCCAA | 0.0652 |
| TAACAGAA | 0.126 |
| CGCACCCC | -0.3 |
| CGTTCGCA | 0.0816 |
| CCGGGTAG | -0.105 |
| CGTAACGA | -0.12 |
| ACTGCGGC | -0.0381 |
| GCTGGGAA | -0.133 |
| ATCTCTCA | 0.034 |
| TAAGTGTA | 0.172 |
| CTCCCAGC | -0.211 |
| CCTTTATC | -0.243 |
| TAAGGATA | -0.084 |
| ATTATTCA | 0.199 |
| CATTTTGA | 0.168 |
| CGCTTAAA | 0.0753 |
| CGACCCCG | -0.286 |
| AGACTACG | 0.322 |
| AAATATAG | 0.143 |
| GCATACAC | -0.114 |
| GAGGCTCA | 0.0765 |
| CAGTGTAC | -0.091 |
| TAACAATA | 0.0823 |

| Sequence | PBM E-score |
| --- | --- |
| ATGGTTGA | 0.249 |
| ACGGCCAC | -0.284 |
| CACAACTA | 0.0429 |
| CTCACAAA | 0.232 |
| AATTCAGG | -0.204 |
| CGCGTGGC | -0.0741 |
| AATCAATG | 0.236 |
| GGTGCTAA | 0.00442 |
| AATCTACG | -0.0149 |
| GTGTGAGA | 0.136 |
| AATGTTAG | -0.0796 |
| GCTCCTGA | -0.0761 |
| CACAAGCG | -0.127 |
| GAGAGAAC | -0.058 |
| CGCAGGGC | 0.0685 |
| ACTGGAAT | -0.085 |
| TATCTTCA | 0.0425 |
| CGGAATAG | 0.097 |
| CGGTTGCC | 0.026 |
| GGGGCAAA | -0.35 |
| GCCGAAGA | 0.0984 |
| ACTGCAAC | -0.00506 |
| GCCTAGCA | -0.235 |
| AAATGCCT | -0.305 |
| GACATGTA | 0.0366 |

| Sequence | PBM E-score |
| --- | --- |
| CATCTAAA | 0.0832 |
| AATATCCT | -0.0515 |
| ATCCGGTC | -0.135 |
| GTCCATAA | -0.161 |
| CCGGTCAG | -0.221 |
| ACTAGGTG | 0.0089 |
| AGCGCCCA | -0.214 |
| GTCCGCTA | 0.102 |
| GAAGTGAA | 0.00035 |
| ATTAGGTA | 0.0169 |
| GCGCCGCA | -0.324 |
| ATCTCCCA | -0.0716 |
| ATCTTACC | 0.0346 |
| GCATAGGA | -0.0695 |
| GCGCATAA | -0.0865 |
| CAGAGTAC | 0.109 |
| AGAATCTG | -0.0207 |
| GCTAAAAA | 0.0668 |
| CACGCATA | -0.138 |
